Results from PMC4336329 (PLoS ONE, 2015).
The whole screen tested about 310,000 compounds, of which about 14,000 (4.5%) showed an effect of 50% or more. The effect is printed as a negative number. The list shows a part of the results.

target: human ether-à-go-go-related gene (hERG) potassium channel (human, UniProt Q12809); assay: primary screen, population patch clamp on CHO cells stably expressing hERG
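Note: peak tail current of the secondary pulse compared with the same well before compound.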

Chain of human ether-à-go-go-related gene (hERG) potassium channel (Q12809 whole entry, looked up): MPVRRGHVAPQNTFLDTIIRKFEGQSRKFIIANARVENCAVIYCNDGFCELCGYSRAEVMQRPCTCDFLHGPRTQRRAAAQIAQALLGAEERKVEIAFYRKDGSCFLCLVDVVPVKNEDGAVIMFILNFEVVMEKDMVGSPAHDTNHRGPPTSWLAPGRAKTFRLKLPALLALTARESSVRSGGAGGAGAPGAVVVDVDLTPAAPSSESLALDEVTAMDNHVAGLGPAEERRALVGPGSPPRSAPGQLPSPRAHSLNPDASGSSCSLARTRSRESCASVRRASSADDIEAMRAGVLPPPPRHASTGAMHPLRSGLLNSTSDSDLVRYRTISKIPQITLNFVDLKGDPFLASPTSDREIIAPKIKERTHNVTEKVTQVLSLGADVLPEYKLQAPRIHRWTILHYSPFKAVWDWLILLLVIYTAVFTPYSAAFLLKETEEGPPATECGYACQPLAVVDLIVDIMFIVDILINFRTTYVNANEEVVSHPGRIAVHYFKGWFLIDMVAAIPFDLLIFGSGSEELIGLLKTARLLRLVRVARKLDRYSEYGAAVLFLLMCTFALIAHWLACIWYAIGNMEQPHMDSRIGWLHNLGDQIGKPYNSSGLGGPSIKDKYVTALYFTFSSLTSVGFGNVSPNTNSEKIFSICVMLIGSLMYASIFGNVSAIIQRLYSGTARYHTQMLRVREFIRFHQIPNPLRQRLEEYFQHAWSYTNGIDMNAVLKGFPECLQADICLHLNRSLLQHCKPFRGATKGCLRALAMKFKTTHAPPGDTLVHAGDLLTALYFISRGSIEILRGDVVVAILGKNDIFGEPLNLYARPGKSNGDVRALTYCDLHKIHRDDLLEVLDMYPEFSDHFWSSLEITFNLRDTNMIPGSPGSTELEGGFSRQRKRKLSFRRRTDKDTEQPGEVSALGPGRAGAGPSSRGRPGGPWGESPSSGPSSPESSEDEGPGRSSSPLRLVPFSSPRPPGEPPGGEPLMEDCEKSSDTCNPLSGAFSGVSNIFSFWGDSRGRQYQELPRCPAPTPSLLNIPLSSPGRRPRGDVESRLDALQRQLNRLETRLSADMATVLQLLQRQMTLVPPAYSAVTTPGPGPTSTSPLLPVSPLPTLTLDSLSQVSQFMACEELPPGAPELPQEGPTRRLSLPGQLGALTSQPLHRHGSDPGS

First: C/C(=N\NC(=O)c1ccccc1O)c1c(O)n(Cc2ccccc2)c(=O)[nH]c1=O
Second: C/C(=N\NC(=O)c1ccccc1O)c1c(O)cc(C)oc1=O
The “hERG current change (%, negative = inhibition) at 10uM” value of the first is higher: -2.37% for the first, -7.48% for the second.

First: O=C(N/N=C/C1CC2CCC1C2)c1c[nH]c2ccccc12 (stereo not shown)
Second: CSc1ccccc1C(=O)C1CCCN(S(=O)(=O)c2c(C)noc2C)C1 (stereo not shown)
The “hERG current change (%, negative = inhibition) at 10uM” value of the first is lower: 1.38% for the first, 1.91% for the second.

Compared with `COc1cccc(CNc2nc3ccccc3n2C)c1O`, `CCCc1cc(-n2ccnc2C)n2c(nc3ccccc32)c1C#N` is higher in “hERG current change (%, negative = inhibition) at 10uM” value: 0.402% for the first, 0.616% for the second.

First: COc1ccc(C2NC(=O)N(CCCC(=O)O)C(C)=C2C(=O)OCc2ccccc2)cc1 (stereo not shown)
Second: COc1cccc(CN(C)C(=O)C2CCC(=O)N(Cc3cccc(F)c3)C2)c1 (stereo not shown)
The “hERG current change (%, negative = inhibition) at 10uM” value of the first is higher: 13.9% for the first, 2.77% for the second.

Compared with `COc1ccccc1OCCOCCOc1c(C)cc(C)cc1Br`, `COc1cc2c(cc1OC)/C(=C/c1ccc(Br)cc1)C(=O)OC2` is lower in “hERG current change (%, negative = inhibition) at 10uM” value: 8.26% for the first, -6.2% for the second.

First: O=C1CN(C(=O)/C=C/c2ccc(Cl)cc2)c2ccccc2N1
Second: N#C/C(=C(O)\C=C\c1ccccc1)c1nc2ccccc2[nH]1
The “hERG current change (%, negative = inhibition) at 10uM” value of the first is lower: -75.2% for the first, 13.6% for the second.

First: Cc1ccc(-c2ccc(/C=C3\C(=O)ON=C3c3ccccc3)o2)c([N+](=O)[O-])c1
Second: CC(=O)Sc1nc(-c2ccccc2)[nH]c1S(=O)(=O)c1ccc(C)cc1
The “hERG current change (%, negative = inhibition) at 10uM” value of the first is lower: -26.7% for the first, -0.451% for the second.

First: CCCC(=O)c1ccc(N2CCN(C(=O)OCC)CC2)c(F)c1
Second: CCOC(=O)N1CCN(S(=O)(=O)N2CCCC(C(=O)NCCc3ccc(OCC)c(OCC)c3)C2)CC1 (stereo not shown)
The “hERG current change (%, negative = inhibition) at 10uM” value of the first is lower: -14.2% for the first, -6.03% for the second.

Going from `Cc1ccc(N2CC(C(=O)Nc3cccnc3)CC2=O)cc1C` (stereo not shown) to `COc1cc(NC(=O)CN2C(=O)C(C)N(c3ccc(C)cc3)C2=O)cc(OC)c1` (stereo not shown), the “hERG current change (%, negative = inhibition) at 10uM” value falls from 3.11% to -7.64%.

Compared with `Cc1nc2ccccc2nc1OCC(=O)Nc1ccccc1`, `COc1ccc2nc(NC(=O)Cn3cnc4ccccc4c3=O)sc2c1` is lower in “hERG current change (%, negative = inhibition) at 10uM” value: 14.8% for the first, -4.49% for the second.

Going from `CN(C)C(=S)SCC(=O)Nc1ccc(Cl)cc1Cl` to `CN(NC(=O)Nc1ccc(Cl)cc1)c1ncc(C(F)(F)F)cc1Cl`, the “hERG current change (%, negative = inhibition) at 10uM” value rises from -2.67% to 12.6%.

First: O=[N+]([O-])c1cc(S(=O)(=O)Nc2ccccc2)ccc1NCc1ccccc1
Second: CN1CCN(C(=O)c2ccccc2NS(=O)(=O)c2ccc(F)cc2)CC1
The “hERG current change (%, negative = inhibition) at 10uM” value of the first is lower: 7.3% for the first, 10.4% for the second.

Compared with `NNC(=S)Nc1ccc(S(=O)(=O)N2CCOCC2)cc1`, `COC(=O)/C=C1\SC(N2CCOCC2)=C(c2ccc(OC)cc2)C1=O` is higher in “hERG current change (%, negative = inhibition) at 10uM” value: 14.9% for the first, 21.1% for the second.

Going from `CCOC(=O)C1CCN(S(=O)(=O)c2c[nH]c(=O)[nH]c2=O)CC1` to `O=C1Nc2ccc(S(=O)(=O)N3CCCC3C(=O)O)c3cccc1c23` (stereo not shown), the “hERG current change (%, negative = inhibition) at 10uM” value rises from -31.6% to 21.5%.

First: O=C(Nc1nnc(CCS(=O)(=O)c2ccc(Br)cc2)s1)c1ccc([N+](=O)[O-])cc1
Second: COc1ccc(C(=O)CN2CCN(c3ccc(Cl)cc3)CC2)cc1OC
The “hERG current change (%, negative = inhibition) at 10uM” value of the first is higher: -0.687% for the first, -44.6% for the second.

First: CCN(CC)S(=O)(=O)c1ccc(C)c(N=C=S)c1
Second: CC1=C(/C=N/Nc2ccc([N+](=O)[O-])cc2[N+](=O)[O-])C(C)(C)CCC1
The “hERG current change (%, negative = inhibition) at 10uM” value of the first is lower: -0.324% for the first, 9.36% for the second.

Going from `O=S1(=O)CC2NC(=S)N(c3cccc(Br)c3)C2C1` (stereo not shown) to `COc1ccc(NC2CC(=O)NC2=O)cc1` (stereo not shown), the “hERG current change (%, negative = inhibition) at 10uM” value falls from 11.5% to 5.24%.

First: CN1CC(=O)N(C)c2ncn(Cc3ccccc3)c2C1=O
Second: COc1ccc(NC(=O)CN2CCN(CC(=O)Nc3ccccc3Cl)CC2)c(OC)c1
The “hERG current change (%, negative = inhibition) at 10uM” value of the first is higher: 3.75% for the first, -78% for the second.

Compared with `Cc1cc(=O)oc2cc(OCCSCCN3CCOCC3)ccc12`, `COc1ccc(-c2cc(=O)oc3cc(OCC(=O)NCCN4CCOCC4)ccc23)cc1` is lower in “hERG current change (%, negative = inhibition) at 10uM” value: 6.19% for the first, -19.8% for the second.

First: COc1ccc(-c2cc3ccccc3oc2=O)cc1NC(=S)NC(=O)c1ccc2c(c1)OCCO2
Second: Cc1cc(C2(c3ccc(O)c(C)c3)OC(=O)c3ccccc32)ccc1O
The “hERG current change (%, negative = inhibition) at 10uM” value of the first is higher: -0.141% for the first, -25.9% for the second.

Compared with `CCC(C)NC(=O)C1CCC(=O)N(c2cc(OC)c(OC)c(OC)c2)C1c1ccc(OC)cc1` (stereo not shown), `CC(=O)c1ccc(OCC(O)CN2CCN(c3ccccn3)CC2)cc1.Cl` (stereo not shown) is lower in “hERG current change (%, negative = inhibition) at 10uM” value: 22.2% for the first, -25.8% for the second.

For `C[C@@H](NC(=O)[C@@H]1Cc2ccccc2CN1C(=O)OC(C)(C)C)C(=O)NCC1CCCO1` (stereo partly shown), the “hERG current change (%, negative = inhibition) at 10uM” value was 9.8%.
